{
  "source": "the supplement of paper PMC3334620",
  "note": "Whole data set: some 33,000 sequences, median “E-score (-0.5 to 0.5)” near -0.012, cut for the highest 2% near 0.29. Some of the results follow.",
  "data": [
    {"molecular_target": "T1, Ybr033w (UniProt P38073)", "T1 sequence": "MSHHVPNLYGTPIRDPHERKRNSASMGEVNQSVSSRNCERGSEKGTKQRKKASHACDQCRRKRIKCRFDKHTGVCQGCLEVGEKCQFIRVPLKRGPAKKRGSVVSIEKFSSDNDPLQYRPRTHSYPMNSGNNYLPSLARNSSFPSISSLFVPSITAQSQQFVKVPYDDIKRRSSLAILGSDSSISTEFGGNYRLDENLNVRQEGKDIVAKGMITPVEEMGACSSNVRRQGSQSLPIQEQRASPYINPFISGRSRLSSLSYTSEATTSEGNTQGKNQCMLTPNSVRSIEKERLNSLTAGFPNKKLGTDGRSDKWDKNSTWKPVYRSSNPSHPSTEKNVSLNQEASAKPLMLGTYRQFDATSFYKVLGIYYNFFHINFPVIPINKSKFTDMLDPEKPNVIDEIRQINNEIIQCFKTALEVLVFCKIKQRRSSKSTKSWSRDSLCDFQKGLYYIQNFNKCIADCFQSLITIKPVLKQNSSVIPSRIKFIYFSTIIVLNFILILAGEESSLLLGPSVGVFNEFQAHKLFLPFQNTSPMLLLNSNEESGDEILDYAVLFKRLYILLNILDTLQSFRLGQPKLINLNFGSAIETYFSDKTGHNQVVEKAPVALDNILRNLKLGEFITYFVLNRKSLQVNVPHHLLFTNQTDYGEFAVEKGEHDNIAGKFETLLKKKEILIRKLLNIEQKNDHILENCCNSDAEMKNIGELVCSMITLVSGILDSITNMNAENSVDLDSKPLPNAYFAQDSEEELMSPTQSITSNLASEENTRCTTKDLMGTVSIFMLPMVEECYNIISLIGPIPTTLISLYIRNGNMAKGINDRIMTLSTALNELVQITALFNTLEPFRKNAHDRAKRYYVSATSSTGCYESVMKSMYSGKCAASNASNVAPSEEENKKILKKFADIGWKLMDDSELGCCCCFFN", "test": "PBM E-score (8-mer binding enrichment) (E-score (-0.5 to 0.5)); higher = stronger / more preferred TF binding; most listed sequences are background and not binding sites", "conditions": "protein concentration: 200 nM; construct: GST-full length", "how_it_was_run": "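E-scores (a modified Wilcoxon-Mann-Whitney statistic) were assigned by the Universal PBM Analysis Suite to every ungapped eight-base word pooled with its reverse complement. The input came from universal all-10-mer Agilent arrays made double-stranded by primer extension and probed with GST-tagged yeast transcription factors at about 100-200 nM. Fluorescent anti-GST detected bound protein, and masliner normalised the scans.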", "values": [
      {"sequence": "CTGTTGGA", "PBM E-score": 0.0606},
      {"sequence": "CGAAATGA", "PBM E-score": 0.131},
      {"sequence": "CAGAAGGC", "PBM E-score": -0.0891},
      {"sequence": "CCGGGAGG", "PBM E-score": -0.208},
      {"sequence": "GGAGACTA", "PBM E-score": 0.0159},
      {"sequence": "CTCCCTAC", "PBM E-score": -0.194},
      {"sequence": "GGGCGCAC", "PBM E-score": -0.282},
      {"sequence": "CGGATAAC", "PBM E-score": 0.0679},
      {"sequence": "GAACCGAC", "PBM E-score": -0.00873},
      {"sequence": "CAGTATCC", "PBM E-score": 0.0576},
      {"sequence": "ATAAAATG", "PBM E-score": 0.219},
      {"sequence": "ACTCTGGC", "PBM E-score": -0.073},
      {"sequence": "AATATTAC", "PBM E-score": 0.283},
      {"sequence": "CGTGGTCA", "PBM E-score": -0.173},
      {"sequence": "AGCGGGAT", "PBM E-score": -0.086},
      {"sequence": "AAGGACCA", "PBM E-score": -0.2},
      {"sequence": "ATATCGCA", "PBM E-score": 0.0731},
      {"sequence": "ATAACAAT", "PBM E-score": 0.165},
      {"sequence": "TAAGGGGA", "PBM E-score": -0.129},
      {"sequence": "ACCCCCAC", "PBM E-score": -0.458},
      {"sequence": "ATCATCGG", "PBM E-score": -0.00717},
      {"sequence": "GCGCGTTA", "PBM E-score": 0.0464},
      {"sequence": "AGCGTCAA", "PBM E-score": 0.0946},
      {"sequence": "AGAGTCAT", "PBM E-score": -0.209},
      {"sequence": "ACTTCGAA", "PBM E-score": -0.0475},
      {"sequence": "ATTGACGC", "PBM E-score": -0.0049},
      {"sequence": "ATCCGCTC", "PBM E-score": -0.102},
      {"sequence": "ATCGCCAT", "PBM E-score": -0.0752},
      {"sequence": "GTCGCGTA", "PBM E-score": 0.0648},
      {"sequence": "AAACGCGA", "PBM E-score": 0.0304},
      {"sequence": "AAGCGAGT", "PBM E-score": 0.167},
      {"sequence": "ACTTATAG", "PBM E-score": 0.0878},
      {"sequence": "ATAAAGAC", "PBM E-score": 0.0374},
      {"sequence": "ATTAAAAG", "PBM E-score": 0.223},
      {"sequence": "GGATTACA", "PBM E-score": -0.0482},
      {"sequence": "ACACACAC", "PBM E-score": 0.0456},
      {"sequence": "CGAGAATA", "PBM E-score": 0.212},
      {"sequence": "TGAGAACA", "PBM E-score": 0.13},
      {"sequence": "GAAGGGGC", "PBM E-score": -0.323},
      {"sequence": "CGAAGTAC", "PBM E-score": 0.0105},
      {"sequence": "CATCTTGG", "PBM E-score": 0.0844},
      {"sequence": "CATCGGCA", "PBM E-score": -0.127},
      {"sequence": "AGTGATAT", "PBM E-score": 0.107},
      {"sequence": "CAACGAAG", "PBM E-score": -0.0127},
      {"sequence": "ATATGTTG", "PBM E-score": 0.272},
      {"sequence": "CTACCAAG", "PBM E-score": -0.0238},
      {"sequence": "AGCGTACT", "PBM E-score": -0.111},
      {"sequence": "AAGGCCAG", "PBM E-score": -0.105},
      {"sequence": "GCAGTACA", "PBM E-score": -0.235},
      {"sequence": "TACTTGAA", "PBM E-score": 0.0775},
      {"sequence": "AGGGCGGG", "PBM E-score": -0.164},
      {"sequence": "AGACCAAT", "PBM E-score": 0.0603},
      {"sequence": "GTGAAGAA", "PBM E-score": 0.0574},
      {"sequence": "ATATCTCC", "PBM E-score": 0.158},
      {"sequence": "ATGGACAG", "PBM E-score": -0.0265},
      {"sequence": "AGGTGCAA", "PBM E-score": 0.0949},
      {"sequence": "GTCGAGAA", "PBM E-score": 0.0995},
      {"sequence": "CCCCAAAG", "PBM E-score": -0.26},
      {"sequence": "GGAAATCA", "PBM E-score": -0.0347},
      {"sequence": "CCGGGAAG", "PBM E-score": -0.0608},
      {"sequence": "AAGATCGC", "PBM E-score": -0.0697},
      {"sequence": "CGATACAG", "PBM E-score": -0.17},
      {"sequence": "CCAATTTC", "PBM E-score": 0.173},
      {"sequence": "AGAGTATG", "PBM E-score": 0.0606},
      {"sequence": "CAGTAGCC", "PBM E-score": -0.179},
      {"sequence": "AAATCGCT", "PBM E-score": -0.173},
      {"sequence": "AGGTTAAC", "PBM E-score": 0.144},
      {"sequence": "GAACGAAA", "PBM E-score": -0.00524},
      {"sequence": "CATTGACG", "PBM E-score": 0.0429},
      {"sequence": "CCGTAGCA", "PBM E-score": -0.0749},
      {"sequence": "ATAGAGTC", "PBM E-score": -0.172},
      {"sequence": "ACCTTTGC", "PBM E-score": 0.0369},
      {"sequence": "GGTACTTA", "PBM E-score": -0.0033},
      {"sequence": "CCAGTGGG", "PBM E-score": -0.297},
      {"sequence": "ACACGTCC", "PBM E-score": -0.334},
      {"sequence": "CCGTCCGA", "PBM E-score": -0.141},
      {"sequence": "AACATGTC", "PBM E-score": 0.133},
      {"sequence": "GACAGACA", "PBM E-score": 0.0604},
      {"sequence": "ATTATCTG", "PBM E-score": 0.218},
      {"sequence": "ATTGCGGC", "PBM E-score": -0.152},
      {"sequence": "AGTTTATC", "PBM E-score": 0.363},
      {"sequence": "CTTTGCCA", "PBM E-score": -0.167},
      {"sequence": "CTGGAGGC", "PBM E-score": -0.043},
      {"sequence": "CCCGGGAA", "PBM E-score": -0.133},
      {"sequence": "AATTCTTA", "PBM E-score": 0.146},
      {"sequence": "CCATCGTA", "PBM E-score": 0.0563},
      {"sequence": "ATTCGGGA", "PBM E-score": 0.0738},
      {"sequence": "ACCGCAAA", "PBM E-score": 0.135},
      {"sequence": "AATAGAGG", "PBM E-score": -0.0249},
      {"sequence": "AAGTTTGG", "PBM E-score": 0.184},
      {"sequence": "ATCTTACG", "PBM E-score": 0.0253},
      {"sequence": "CCGCCGAG", "PBM E-score": -0.0357},
      {"sequence": "AACTGCGG", "PBM E-score": 0.0628},
      {"sequence": "CGACAACG", "PBM E-score": -0.0707}
    ]}
  ]
}
